Experimental data published in a collection of fitness landscapes (doi:10.1016/j.celrep.2020.107928).
In all, about 81,000 sequences were measured (“one-hybrid fitness for binding parS DNA”: median about -0.17, highest 2% from about 0.51 on). The list shows a part of the results.

B1: Caulobacter ParB omega fusion; a variant is named by its letters at X, in order, B8GW30 (parent)
chain: MESVVVGEPGMSEGRRGLGRGLSALLGEVDAAPAQAPGEQLGGSREAPIEILQRNPDQPRRTFREEDLEDLSNSIREKGVLQPILVRPSPDTAGEYQIVAGERAWRAAQRAGLKTVPIMVRELDDLAVLEIGIIENVQRADLNVLEEALSYKVLMEKFERTQENIAQTIGKSXSHVANXMRLLXLPDEVQSYLVSGELTAXHARAIAAAADPVALAKQIIEGGLSVRETEALARKAPNLSAGKSKGGRPPRVKDTDTQALESDLSSVLGLDVSIDHRGSTGTLTITYATLEQLDDLCNRLTRGI

Variants of: B1
Assay: one-hybrid fitness for binding parS DNA (scaled: cognate 1, non-cognate 0); higher = stronger binding
Conditions: with parS DNA site
Summary of the method: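 Pre- and post-selection plasmids were Illumina-sequenced, three replicate libraries were pooled, and any variant with under 10 reads was removed. The libraries were Caulobacter ParB with four specificity codons randomised, selected in E. coli USO through a HIS3 reporter whose site is 19 bp from the promoter. Cells grew 48 hours at 37°C on M9 without histidine, with 0.1 mM IPTG and 5 mM 3-AT. Fitness is the log change in variant-to-wild-type read ratio, rescaled against cognate and non-cognate.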

Variant | one-hybrid fitness for binding parS DNA
INDG | ≤ 0.2
CINS | ≤ 0.2
VVMY | ≤ 0.2
AQAH | ≤ 0.2
IAKI | ≤ 0.2
ERLG | ≤ 0.2
DLYR | ≤ 0.2
HKKY | ≤ 0.2
QKAM | ≤ 0.2
VICA | ≤ 0.2
ETWT | ≤ 0.2
SSAN | ≤ 0.2
RHCK | ≤ 0.2
DPLG | ≤ 0.2
HGRI | ≤ 0.2
AVLM | ≤ 0.2
VKYG | ≤ 0.2
KCAR | ≤ 0.2
QMRP | ≤ 0.2
LVMD | ≤ 0.2
TRSA | ≤ 0.2
MQQR | ≤ 0.2
NRNL | ≤ 0.2
MRYR | ≤ 0.2
YSSV | ≤ 0.2

Variant | one-hybrid fitness for binding parS DNA
MSYS | ≤ 0.2
STVF | ≤ 0.2
AWRP | ≤ 0.2
QDWT | ≤ 0.2
LKQS | ≤ 0.2
LWCR | ≤ 0.2
VCMG | ≤ 0.2
SQVS | ≤ 0.2
SRRG | ≤ 0.2
IMTR | ≤ 0.2
DRGS | ≤ 0.2
DLNG | ≤ 0.2
RYFL | ≤ 0.2
MNSA | ≤ 0.2
GIME | ≤ 0.2
SIYC | ≤ 0.2
SQRG | ≤ 0.2
GSTY | ≤ 0.2
RCQT | 0.936
FFTG | ≤ 0.2
PKQS | ≤ 0.2
DCQG | ≤ 0.2
MRKM | ≤ 0.2
RCCF | 0.314
QADT | ≤ 0.2

Variant | one-hybrid fitness for binding parS DNA
LYLS | ≤ 0.2
KLYH | ≤ 0.2
DESA | ≤ 0.2
KKAT | ≤ 0.2
ACAN | ≤ 0.2
INVL | ≤ 0.2
PRFS | ≤ 0.2
CCDC | ≤ 0.2
ICLM | ≤ 0.2
MCCT | ≤ 0.2
GTQL | ≤ 0.2
YTPK | ≤ 0.2
RDLK | ≤ 0.2
KDMR | ≤ 0.2
PVHF | ≤ 0.2
TNEM | ≤ 0.2
AQRC | ≤ 0.2
IRHG | ≤ 0.2
GRCE | ≤ 0.2
LRRQ | ≤ 0.2
HVIT | ≤ 0.2
FTVT | ≤ 0.2
GFKT | ≤ 0.2
VVVV | ≤ 0.2
HVPM | ≤ 0.2

Variant | one-hybrid fitness for binding parS DNA
QMPL | ≤ 0.2
ACHG | ≤ 0.2
TAYN | ≤ 0.2
WRYT | ≤ 0.2
QIDT | ≤ 0.2
NNMS | ≤ 0.2
WAGT | ≤ 0.2
RTEL | ≤ 0.2
RYFQ | ≤ 0.2
LNTV | ≤ 0.2
GHYN | ≤ 0.2
IPAR | ≤ 0.2
LMDC | ≤ 0.2
AETD | ≤ 0.2
DNIV | ≤ 0.2
YKSL | ≤ 0.2
PKIS | ≤ 0.2
RVGV | ≤ 0.2
YTCT | ≤ 0.2
WITG | ≤ 0.2
PCSY | ≤ 0.2
LTPE | ≤ 0.2
